Test results from PubChem BioAssay AID493005 (National Center for Advancing Translational Sciences (NCATS), 2010).
Among all 340,000 compounds or so, fewer than 10 were called active. Inconclusive results, whose numbers are uncertain, are shown with a selection of clear calls. The call rests on the fitted dose curve; in most records, active means well fitted inhibition curve with a large enough effect in the main read-out, with a control signal flat (not every such curve was filed as active); inconclusive means small, poorly fitted or top-dose-only effect, or effect the other way, or a change in a side signal; inactive means no such curve, though single readings can be large or run the other way. Where the call is inconclusive, the potency comes from a doubtful curve fit. A note “side channel” means that the fit belongs to a control or component signal, not to the main read-out.

biological target: Tumor susceptibility gene 101 protein (Homo sapiens) (UniProt Q99816); assay: qHTS Assay for Iinhibitors of HIV-1 Budding by Blocking the Interaction of PTAP/TSG101; details: Fluorescence polarization, FITC-PTAP peptide / Tsg101 binding; series mostly up to 115 µM
Sequence of UniProt Q99816 (Q99816 whole entry, looked up, the tested form may be a part): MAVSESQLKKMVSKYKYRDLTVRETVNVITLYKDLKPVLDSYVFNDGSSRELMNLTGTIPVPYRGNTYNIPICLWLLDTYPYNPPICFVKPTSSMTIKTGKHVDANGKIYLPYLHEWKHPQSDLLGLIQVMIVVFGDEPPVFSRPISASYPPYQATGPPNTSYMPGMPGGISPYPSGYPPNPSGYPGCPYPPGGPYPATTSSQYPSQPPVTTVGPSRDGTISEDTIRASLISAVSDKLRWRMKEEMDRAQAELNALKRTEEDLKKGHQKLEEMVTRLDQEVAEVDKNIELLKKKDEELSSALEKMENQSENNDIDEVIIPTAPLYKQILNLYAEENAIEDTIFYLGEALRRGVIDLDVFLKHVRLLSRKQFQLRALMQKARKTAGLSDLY
Method in brief: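 FP read-out: FITC-PTAP peptide, 50 nM final, binding Tsg101 binding domain, 10 uM final; 20 min, r.t.; 10 mM HEPES pH 7.5, 0.15 M NaCl, 0.01% Tween 20, 3 mM EDTA, 0.1 mM TCEP.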
Potency means the concentration at half of the fitted maximal effect; tags describe the fitted curve by direction and shape or compound fluorescence and quenching.

| Compound | Potency |
| --- | --- |
| ClCc1nc2ccccc2n1Cc1ccccc1 | inconclusive: 89.1 µM [falling, single point] |
| COc1cc(/C=N/NC(=O)c2cccc([N+](=O)[O-])c2)cc(OC)c1O | inactive |
| Cn1c(Cl)c(/C=N/OC(=O)C2CC2)c2ccccc21 | inactive |
| COc1cc(-c2nnc(SCC(=O)N(Cc3ccccc3)C(C)(C)C)o2)cc(OC)c1OC | inconclusive: 17.8 µM [quencher, side channel, partial curve, poor fit] |
| Cn1c(-c2ccc(=O)[nH]c2)nc2ccccc21 | inactive |
| C=CCc1cccc(C=Nc2cc(Br)ccc2O)c1O | inconclusive: 79.4 µM [fluorescent, side channel, partial curve] |
| Cc1cc(-c2ccccc2)nc(N/N=C/c2ccc(O)cc2)n1 | inactive |
| CCN(CC)c1ccc(/C=C2/SC(=O)N(C(C)C)C2=O)o1 | inconclusive: 50.1 µM [fluorescent, side channel, partial curve, poor fit] |
| O=C(O)[C@@H]1[C@H]2C[C@H]3c4[nH]c5ccccc5c4CCN3C[C@@H]2CC[C@@H]1O | inconclusive: 56.2 µM [fluorescent, partial curve, poor fit] |
| CCN(CC)S(=O)(=O)c1ccc(C(=O)OCCN2C(=O)c3cccc4c(N5CCOCC5)ccc(c34)C2=O)cc1 | inconclusive: 79.4 µM [fluorescent, side channel, partial curve, poor fit] |
| CCOC(=O)c1ccc(Nc2sc(C(=O)c3cccc([N+](=O)[O-])c3)c(N)c2C#N)cc1 | inconclusive: 89.1 µM [fluorescent, side channel, single point] |
| O=C(OCCN1C(=O)c2cccc3c(N4CCOCC4)ccc(c23)C1=O)c1ccc(Cl)cc1Cl | inconclusive: 50.1 µM [fluorescent, partial curve, poor fit] |
| Cc1ccc(NC(=S)Nc2ccc3nc(-c4ccccn4)c(-c4ccccn4)nc3c2)cc1C | inconclusive: 56.2 µM [falling, partial curve, poor fit] |
| Cn1cc(/C=C2\SC(=S)N(NC(=O)c3ccccc3)C2=O)c2ccccc21 | inconclusive: 56.2 µM [fluorescent, partial curve, poor fit] |
| C=C(C)COc1ccc(-c2nc(N)nc(C(F)(F)F)c2-c2ccc(OC)cc2)c(O)c1 | inactive |
| O=S1(=O)c2ccc(Br)cc2N2CCC[C@@H]2CN1C1CC1 | inactive |
| O=C1N=C(N2C=CC(=C3C=CNC=C3)C=C2)/C(=C/N=NC(=O)c2ccccc2O)S1 | inconclusive: 79.4 µM [fluorescent, side channel, partial curve, poor fit] |
| CCCCN(C)C(=O)c1cc2cc3cc(OC)ccc3nc2o1 | inactive |
| Nc1nonc1/C(=N/O)N1CCN(CCO)CC1 | inactive |

| Compound | Potency |
| --- | --- |
| CC1=CC(=C(C#N)c2nc3ccccc3s2)C=C(C)N1CC1CCCO1 (configuration not stated) | inconclusive: 89.1 µM [fluorescent, side channel, single point] |
| CCCCCCc1cc2cc(/C(N)=N/NC(=O)c3ccncc3)c(=O)oc2cc1O | inconclusive: 50.1 µM [fluorescent, side channel, partial curve, poor fit] |
| COc1ccc2nc(C)cc(NCc3ccc(F)cc3)c2c1 | inconclusive: 56.2 µM [fluorescent, side channel, partial curve, poor fit] |
| CC1=CC(=C(C#N)c2nc3ccccc3s2)C=C(C)N1Cc1ccco1 | inconclusive: 79.4 µM [fluorescent, side channel, partial curve, poor fit] |
| CCc1ccc(NC(=O)/C(C#N)=C/c2cc3ccc(C)cc3nc2N2CCOCC2)cc1 | inconclusive: 79.4 µM [fluorescent, side channel, partial curve, poor fit] |
| COc1ccc(C(=O)c2sc3nc(C)cc(-c4cccs4)c3c2N)cc1 | inconclusive: 56.2 µM [fluorescent, side channel, partial curve, poor fit] |
| Cc1cc(Br)ccc1OCC(=O)NNC(=O)c1cnccn1 | inconclusive: 89.1 µM [quencher, side channel, partial curve, poor fit] |
| O=C(O)c1ccc(-c2ccc(/C=N/Nc3ccc([N+](=O)[O-])cc3)o2)cc1 | inconclusive: 35.5 µM [fluorescent, side channel, full curve, poor fit] |
| Nc1c(C(=O)N/N=C/c2cccnc2)oc2nc(-c3ccccc3)cc(-c3ccco3)c12 | inconclusive: 56.2 µM [fluorescent, side channel, partial curve, poor fit] |
| COc1ccccc1-c1nn2c(=O)cc(C)nc2s1 | inactive |
| CC(C)c1cc(=O)oc2c3c4c(cc12)CCCN4CCC3 | inconclusive: 39.8 µM [fluorescent, side channel, partial curve, poor fit] |
| CNc1ccc(/C=C(\C#N)C(=O)Nc2ccccn2)cc1[N+](=O)[O-] | inconclusive: 50.1 µM [fluorescent, side channel, partial curve, poor fit] |
| O=C(NCc1cc(C(F)(F)F)ccc1Cl)c1cccc2c1C(=O)c1ccc(N3CCCCC3)cc1S2(=O)=O | inconclusive: 79.4 µM [fluorescent, side channel, partial curve] |
| CCCCn1c(-c2nonc2NC(=O)c2ccccc2Cl)nc2ccccc21 | inactive |
| CCN(CC)S(=O)(=O)c1ccc(C(=O)/C=C/c2ccc(-c3ccc([N+](=O)[O-])cc3)o2)cc1 | inconclusive: 56.2 µM [fluorescent, side channel, partial curve, poor fit] |
| Cc1c(Cl)cccc1NC(=O)Nc1cccnc1 | inactive |
| COc1ccc(CNS(=O)(=O)c2ccc3c(c2)N(C(C)=O)CC(C)S3)cc1 (configuration not stated) | inactive |
| CC(C)=CCCC1(C)C=Cc2c(ccc3c2[nH]c2cc(O)c(C)cc23)O1 (configuration not stated) | inconclusive: 79.4 µM [quencher, side channel, partial curve, poor fit] |
